Measurements as given in publication PMC12820563.
Some of the results follow. The list includes weakly bound sequences.

molecular target: T1, MBP-FoxP3dN (UniProt Q99JB6); assay: PD-seq (MBP pull-down with sequencing); conditions: 20 mM Tris-HCl pH 7.5, 100 mM NaCl, 1.5 mM MgCl2, 0.4 uM protein, 0.1 uM dsDNA library, 30 min, room temperature, amylose pull-down; high values mean tight binding; double strand, one strand shown
T1 sequence: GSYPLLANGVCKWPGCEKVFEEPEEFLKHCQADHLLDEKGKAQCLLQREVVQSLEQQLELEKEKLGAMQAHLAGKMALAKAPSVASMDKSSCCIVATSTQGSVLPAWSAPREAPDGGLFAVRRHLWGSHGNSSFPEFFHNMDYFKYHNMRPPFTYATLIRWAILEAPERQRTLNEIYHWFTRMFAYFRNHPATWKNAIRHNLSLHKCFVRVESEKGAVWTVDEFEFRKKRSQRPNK

| Sequence | binding signal (RPM ratio (pull-down/input)) |
| --- | --- |
| GATGATTGTTCTCCCAGCTGATGAATTGCTGCCCTCGAGTAAACAAATTTTCCTAATCTTTCTGTTCAAGCGCCATCTAC | 0.709 |
| GATGATTGTTCTCCCAGCTGATGAATTCAGGCTGTCGAGTAAACAAATTTTCCTAATCTTTCTGTTCAAGCGCCATCTAC | 0.392 |
| GATGATTGTTCTCCCAGCTGATGAATTAAGCTACTCGAGTAAACAAATTTTCCTAATCTTTCTGTTCAAGCGCCATCTAC | 1.44 |
| GATGATTGTTCTCCCAGCTGATGAATTCGCGCGATCGAGTAAACAAATTTTCCTAATCTTTCTGTTCAAGCGCCATCTAC | 0.673 |
| GATGATTGTTCTCCCAGCTGATGAATTCCCGATATCGAGTAAACAAATTTTCCTAATCTTTCTGTTCAAGCGCCATCTAC | 0.303 |
| GATGATTGTTCTCCCAGCTGATGAATTTATAATATCGAGTAAACAAATTTTCCTAATCTTTCTGTTCAAGCGCCATCTAC | 0.602 |
| GATGATTGTTCTCCCAGCTGATGAATTGCTTTCGTCGAGTAAACAAATTTTCCTAATCTTTCTGTTCAAGCGCCATCTAC | 1.16 |
| GATGATTGTTCTCCCAGCTGATGAATTAAAAGTGTCGAGTAAACAAATTTTCCTAATCTTTCTGTTCAAGCGCCATCTAC | 0.337 |
| GATGATTGTTCTCCCAGCTGATGAATTGCTCCGCTCGAGTAAACAAATTTTCCTAATCTTTCTGTTCAAGCGCCATCTAC | 0.38 |
| GATGATTGTTCTCCCAGCTGATGAATTCCACCATTCGAGTAAACAAATTTTCCTAATCTTTCTGTTCAAGCGCCATCTAC | 0.451 |
| GATGATTGTTCTCCCAGCTGATGAATTGGGCAGATCGAGTAAACAAATTTTCCTAATCTTTCTGTTCAAGCGCCATCTAC | 0.328 |
| GATGATTGTTCTCCCAGCTGATGAATTGCTACGTTCGAGTAAACAAATTTTCCTAATCTTTCTGTTCAAGCGCCATCTAC | 0.707 |
| GATGATTGTTCTCCCAGCTGATGAATTAGGGTGCTCGAGTAAACAAATTTTCCTAATCTTTCTGTTCAAGCGCCATCTAC | 0.532 |
| GATGATTGTTCTCCCAGCTGATGAATTTAAAGTGTCGAGTAAACAAATTTTCCTAATCTTTCTGTTCAAGCGCCATCTAC | 0.436 |
| GATGATTGTTCTCCCAGCTGATGAATTGCTACCTTCGAGTAAACAAATTTTCCTAATCTTTCTGTTCAAGCGCCATCTAC | 0.702 |
| GATGATTGTTCTCCCAGCTGATGAATTGATCGTTTCGAGTAAACAAATTTTCCTAATCTTTCTGTTCAAGCGCCATCTAC | 0.653 |
| GATGATTGTTCTCCCAGCTGATGAATTTGTTTGGTCGAGTAAACAAATTTTCCTAATCTTTCTGTTCAAGCGCCATCTAC | 7.49 |
| GATGATTGTTCTCCCAGCTGATGAATTCCTTTCCTCGAGTAAACAAATTTTCCTAATCTTTCTGTTCAAGCGCCATCTAC | 0.29 |
| GATGATTGTTCTCCCAGCTGATGAATTGACGTTTTCGAGTAAACAAATTTTCCTAATCTTTCTGTTCAAGCGCCATCTAC | 0.643 |
| GATGATTGTTCTCCCAGCTGATGAATTTCAACTATCGAGTAAACAAATTTTCCTAATCTTTCTGTTCAAGCGCCATCTAC | 0.519 |

| Sequence | binding signal (RPM ratio (pull-down/input)) |
| --- | --- |
| GATGATTGTTCTCCCAGCTGATGAATTTACCGACTCGAGTAAACAAATTTTCCTAATCTTTCTGTTCAAGCGCCATCTAC | 0.395 |
| GATGATTGTTCTCCCAGCTGATGAATTATCCCTATCGAGTAAACAAATTTTCCTAATCTTTCTGTTCAAGCGCCATCTAC | 0.338 |
| GATGATTGTTCTCCCAGCTGATGAATTTATGCACTCGAGTAAACAAATTTTCCTAATCTTTCTGTTCAAGCGCCATCTAC | 1.69 |
| GATGATTGTTCTCCCAGCTGATGAATTACAAATATCGAGTAAACAAATTTTCCTAATCTTTCTGTTCAAGCGCCATCTAC | 1.43 |
| GATGATTGTTCTCCCAGCTGATGAATTTCCCGTATCGAGTAAACAAATTTTCCTAATCTTTCTGTTCAAGCGCCATCTAC | 0.366 |
| GATGATTGTTCTCCCAGCTGATGAATTATTAGCGTCGAGTAAACAAATTTTCCTAATCTTTCTGTTCAAGCGCCATCTAC | 0.786 |
| GATGATTGTTCTCCCAGCTGATGAATTGTGATGTTCGAGTAAACAAATTTTCCTAATCTTTCTGTTCAAGCGCCATCTAC | 4.21 |
| GATGATTGTTCTCCCAGCTGATGAATTAGGATATTCGAGTAAACAAATTTTCCTAATCTTTCTGTTCAAGCGCCATCTAC | 0.717 |
| GATGATTGTTCTCCCAGCTGATGAATTACTCAATTCGAGTAAACAAATTTTCCTAATCTTTCTGTTCAAGCGCCATCTAC | 0.357 |
| GATGATTGTTCTCCCAGCTGATGAATTGATCCGATCGAGTAAACAAATTTTCCTAATCTTTCTGTTCAAGCGCCATCTAC | 0.203 |
| GATGATTGTTCTCCCAGCTGATGAATTTTTACCGTCGAGTAAACAAATTTTCCTAATCTTTCTGTTCAAGCGCCATCTAC | 0.214 |
| GATGATTGTTCTCCCAGCTGATGAATTAGGATCATCGAGTAAACAAATTTTCCTAATCTTTCTGTTCAAGCGCCATCTAC | 0.453 |
| GATGATTGTTCTCCCAGCTGATGAATTGCATTCTTCGAGTAAACAAATTTTCCTAATCTTTCTGTTCAAGCGCCATCTAC | 4.62 |
| GATGATTGTTCTCCCAGCTGATGAATTTCGAACTTCGAGTAAACAAATTTTCCTAATCTTTCTGTTCAAGCGCCATCTAC | 0.301 |
| GATGATTGTTCTCCCAGCTGATGAATTCAACTCCTCGAGTAAACAAATTTTCCTAATCTTTCTGTTCAAGCGCCATCTAC | 0.287 |
| GATGATTGTTCTCCCAGCTGATGAATTTTTTACCTCGAGTAAACAAATTTTCCTAATCTTTCTGTTCAAGCGCCATCTAC | 0.228 |
| GATGATTGTTCTCCCAGCTGATGAATTTATAGGTTCGAGTAAACAAATTTTCCTAATCTTTCTGTTCAAGCGCCATCTAC | 0.956 |
| GATGATTGTTCTCCCAGCTGATGAATTGAAAATATCGAGTAAACAAATTTTCCTAATCTTTCTGTTCAAGCGCCATCTAC | 0.506 |
| GATGATTGTTCTCCCAGCTGATGAATTATCCATCTCGAGTAAACAAATTTTCCTAATCTTTCTGTTCAAGCGCCATCTAC | 0.37 |
| GATGATTGTTCTCCCAGCTGATGAATTCCTCGTCTCGAGTAAACAAATTTTCCTAATCTTTCTGTTCAAGCGCCATCTAC | 0.283 |
